Measurements taken from PMC12136788.
Some of the results follow.

T1: UNK ZnF1-3 (human, UniProt Q9C0B0 31-174)
T1 sequence: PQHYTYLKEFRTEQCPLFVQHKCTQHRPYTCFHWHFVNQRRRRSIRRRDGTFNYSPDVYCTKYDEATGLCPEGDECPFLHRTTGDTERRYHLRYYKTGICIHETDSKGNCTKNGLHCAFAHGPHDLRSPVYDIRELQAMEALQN

B1: chr8:22470488:22470489:+_ENSG00000158941_ENST00000522599|hu_hu|FALSE|FALSE (ssRNA)
RNA: GGGAGUUCUACAGUCCGACGAUCUGACCCAUCACCAACAGUAAGAAACCACAUUGUUAUAUGUAUUCAAUACAAACUGAACUAAAAGAACUGGAAACAAUCGAAAUCCCUCACAUUCAAUAAAUGGAAAAAGAAUCCAUGCUACAACAGAGGAUUGAGCAUCA
B2: chr2:140009677:140009678:+_ENSMUSG00000027384_ENSMUST00000044825|mus_mus|motif|central (ssRNA)
RNA: GGGAGUUCUACAGUCCGACGAUCGCUGCUAACCACCAGGUCAAACGUGUUUUCUUGGAAGGGAAGGAAUUCUUCAUCAGCGGAAAUAUUCACAGUAGGAAUAUCUGUUUCUAAAGAAUUUUUCAAAGCAUGCUCUGCAAUGUCCAACAGAGGAUUGAGCAUCA
B3: chr21:34922442:34922443:+_ENSG00000159140_ENST00000381679|hu_mus|FALSE|FALSE (ssRNA)
RNA: GGGAGUUCUACAGUCCGACGAUCCUCAGUAGGUGUCUCUGACACUAUCGUGAGGGUUUCUGAUGGCUCAACCACUUUUGCUAUGGGAAGCUCUACCAGCGUGGUCUUUGACGUCUCUGGAGGCAUAGUCUCCAAAGAUUUCAGCAACAGAGGAUUGAGCAUCA
B4: 40045834_40047000_1346_CDS_ENSMUSG00000026074_ENSMUST00000163854|mouse|control|control (ssRNA)
RNA: GGGAGUUCUACAGUCCGACGAUCGUUCUCCUGCUGCAGUCUCAGGAAAUCACGUCGCAGAGUUGACUCUCCAGGCACAUUGACGAUGGAACUUGGCUCUCCCUCCUGCUCAGGCACUUCCUCCUCCUCCUCCUCGCUCCCGCUCAACAGAGGAUUGAGCAUCA
B5: chr22:19452774:19452775:-_ENSG00000070010_ENST00000399523|hu_hu|hu_hu_hu_mus_False|68_78 (ssRNA)
RNA: GGGAGUUCUACAGUCCGACGAUCCUUCUCAUUGUAGUUGAUAGCAAUCACAUCUCCGGUGGUCAGACAGGCAAAGUUUCUCAAUGCAUUUUCUAAUACCGCUUUAGGGUUGGUAAUAUCCAGGAAGUCUGGGCUCUGAGGCUGCAACAGAGGAUUGAGCAUCA
B6: 195012529_195013098_2139_CDS_ENSG00000114331_ENST00000326793|human|control|control (ssRNA)
RNA: GGGAGUUCUACAGUCCGACGAUCCGUCACCAAAGAGCCCCCUAAUACAGCCUGAAUAAGUGGUGUCGCUUUGUUUUCCUCUGAAUUGGCCCAGUUCACGUCUGCACCAUGAGCCAAAGCCUCAGCCAUUUUAGGAAGGUUUUUCAACAGAGGAUUGAGCAUCA
B7: 135111016_135113250_72_ncRNA_ENSMUSG00000030795_ENSMUST00000128851|mouse|control|control (ssRNA)
RNA: GGGAGUUCUACAGUCCGACGAUCGGGUAGGAUAGGCCCCGUAGCUUUGAGUUGCUUGUUGGGUAUAGUCGUUUGAAGCCAUGUCCGCGCACGCGCGCAGCGCAGGCCGCCAAGCAACAAAGUUCCAGACGACCGCGAAGCGAUCAACAGAGGAUUGAGCAUCA
B8: chr6:89307369:89307370:-_ENSMUSG00000030084_ENSMUST00000163139|mus_hu|FALSE|FALSE (ssRNA)
RNA: GGGAGUUCUACAGUCCGACGAUCAGUACUGCCCAGGCCGUGGGGGCAGGACUGCACGCUGGGCGGCGGGUAGCACUUCUCGUUGUCCUCCACAGGGCCCGUGACGUGGGCCCGCAGCAGUGUCAGGUUCCCCGACAGCUUAUACAACAGAGGAUUGAGCAUCA
B9: chr11:106642794:106642795:-_ENSMUSG00000020719_ENSMUST00000021062|mus_mus|FALSE|FALSE (ssRNA)
RNA: GGGAGUUCUACAGUCCGACGAUCACUUUCCUUGUGUAAAAAUAAACACCAAAACAAAAAUCCCCCCCAAAAACACUAUCUAAGCCAAGUUGUACAUGACAUUAUAUAUGUAAAAUAAAGUACAAUUUCACUUAAUUCAGUCUUCAACAGAGGAUUGAGCAUCA
B10: 105956068_105956188_417_3pUTR_ENSG00000135974_ENST00000258457|human|control|control (ssRNA)
RNA: GGGAGUUCUACAGUCCGACGAUCAUCUCAUGUUGUUCUCUUUUCUUUUCCAUCAUUUUCCCCCAUCUAUUCUUCGGCAAAUCCCUCUGAGGCAAUGGUAUUGCAUGUUGGACAUAAAGGUCAGUAAGACUGUCUUUGUUUACUCAACAGAGGAUUGAGCAUCA
B11: chr6:21597833:21597834:+_ENSG00000124766_ENST00000244745|hu_hu|FALSE|FALSE (ssRNA)
RNA: GGGAGUUCUACAGUCCGACGAUCAAGUUAAAACUCUAGCCCUUCAGUGAAGGAGACGUAAAAUGGCGUGGGUAACAACAACUACCAAAAAAAAAAAAAAAAAAAGAAAAAAAAAAGAAAAAAAGGAAAAGGAAGGAAUAAAGACAACAGAGGAUUGAGCAUCA
B12: chr16:24801560:24801561:+_ENSG00000090905_ENST00000315183|hu_hu|FALSE|FALSE (ssRNA)
RNA: GGGAGUUCUACAGUCCGACGAUCCAUUAGAGUUGCAUUCACAGUGUCACCAUUAGCUUGGCCAUUAGGGCCUGAACAUUUGUCUCCAGAGUAAUUAGAACCAUAGGCACCCCAUGUAGUACCAUAAGAGCCUCCACUUUUUGACAACAGAGGAUUGAGCAUCA
B13: 128202819_128204660_1172_CDS_ENSG00000179348_ENST00000341105|human|control|control (ssRNA)
RNA: GGGAGUUCUACAGUCCGACGAUCGGCCCCACAGUUGACACACUCCCGGCCUUCUGAACAGGAACGAGCCUUGCUGCGCUGCUUAGGGGUGAAGCUGGAGGCCGGUCCCCCCAGGAAGCCUCCGGGGUGGAAGAGUCCGCUGCUCAACAGAGGAUUGAGCAUCA
B14: chr16:8858281:8858282:+_ENSMUSG00000022507_ENSMUST00000023150|mus_hu|motif|central (ssRNA)
RNA: GGGAGUUCUACAGUCCGACGAUCGACAAAUUCAUUAGGUGCAUUUGAAAGUAAACGCAAUGGAAAAAAGUAACAAAUGCGGAAGUUUUCUAAAAGUUUAAUGAAGCCAAUAAGGCAUAUAAAUUGUGUUCUGGCAGACAUUAACAACAGAGGAUUGAGCAUCA
B15: chr8:26227902:26227903:+_ENSG00000221914_ENST00000315985|hu_mus|FALSE|FALSE (ssRNA)
RNA: GGGAGUUCUACAGUCCGACGAUCGAGAAUGCCAGCCUAAUUCACUUUGUCUUGAAAUAUAUACAGAUUGUUUGUAGUUGCUACAGCAAUGAUGUUUUCCUUGGGAUGCCAGGCUGUAUGAAGGAUUUUCUUGUUGAAGUCUAGCAACAGAGGAUUGAGCAUCA
B16: chr7:19721593:19721594:+_ENSMUSG00000050428_ENSMUST00000053109|mus_hu|FALSE|FALSE (ssRNA)
RNA: GGGAGUUCUACAGUCCGACGAUCACUGGGCAGGCCGCUGUCUGGUGCACGGGGCUCCCGGCCGUUGGAGAUGCGGAAGGCGAUGCGCACCUCCCCAGGGCCUGGCCCGGGCCGCUCUUCCUUGCGGAGGCCCUUGGUGGGAGGCAACAGAGGAUUGAGCAUCA
B17: chr12:114310842:114310843:+_ENSMUSG00000021143_ENSMUST00000084891|mus_mus|motif|central (ssRNA)
RNA: GGGAGUUCUACAGUCCGACGAUCUGUAAGGGAGGUGGCCUUUGUAGUCAGACCAGCAUGCUGGAGCCUUCACGGGCGGCAAACAAAUCUCUCUCUCUCUCUCUCUCACACACACACACACACACACACACACACACACACACACAACAGAGGAUUGAGCAUCA
B18: 34911504_34911624_172_CDS_ENSG00000159131_ENST00000381815|human|control|control (ssRNA)
RNA: GGGAGUUCUACAGUCCGACGAUCAGUGCCUGCGUUUCCUGGGGCAACCAACACUUGUUUGACAUGAUGAGACUGUGCAAGUUUCCAGGCCAGCGUAUGUUCCCUUCCUCCACUGCCAAUUAUAAGUACUCGGGCUGCCAUUGUCAACAGAGGAUUGAGCAUCA
B19: chr7:56126341:56126342:+_ENSG00000146731_ENST00000540286|hu_mus|hu_hu_hu_mus_True|1_8 (ssRNA)
RNA: GGGAGUUCUACAGUCCGACGAUCCAUGUUUCUCCUCUUGGCUCUGCGCAGAGCUACGAUCCCUUCUUUCGCAAGGGCAUCUAAGGAAAAGGGGUCAAUCCCCUUUUGAUUAAUAACGACAAAUCCUUUAUCUGAAUCGCCACACAACAGAGGAUUGAGCAUCA
B20: chr1:60041781:60041782:+_ENSMUSG00000041040_ENSMUST00000036540|mus_hu|mus_mus_mus_hu_False|78_98 (ssRNA)
RNA: GGGAGUUCUACAGUCCGACGAUCAAGUUUACAAUAGCUCAACUUUAGCAGUAGUGGAAUGGCAAGUUUUAUUUUCCUUCACAAAAGAAAAUCUUUAUAACCCAGUCCUAGUCUUGGACAUAGUGAAAGCUAUAAAUUCUGACUCAACAGAGGAUUGAGCAUCA
B21: chr5:37680062:37680063:+_ENSMUSG00000029121_ENSMUST00000031004|mus_hu|mus_mus_mus_hu_False|88_88 (ssRNA)
RNA: GGGAGUUCUACAGUCCGACGAUCUUUGGGUGUAGCUGGUACCUCGUACACAGGCCCGUCAUACAUGCCCCUGGAAACCCCUUGCAAUCCAAAAACCUUAUUCCUGAUUUUGACGCGCUGGUACAGGUGCUCCGGGAACGCCUUCAACAGAGGAUUGAGCAUCA
B22: chr1:225611761:225611762:-_ENSG00000143815_ENST00000272163|hu_hu|motif|central (ssRNA)
RNA: GGGAGUUCUACAGUCCGACGAUCCCAGGCCAUCGACCUCUUACCACUUCACCAUCGGCAAAUUUCCUACUUGGCAUUUUCGGUAAUUAACCUGCGCCAGGUUCCGGCGGUGACACGGACGGCUCCCGGAGAAUAGUCGCACAGCAACAGAGGAUUGAGCAUCA

What follows are binders tested against T1, UNK ZnF1-3 (assay: nsRBNS (natural sequence RNA bind-n-seq); RBNS binding buffer (assumed for nsRBNS): 25 mM Tris pH 7.5, 150 mM KCl, 3 mM MgCl2, 0.01% Triton X-100, 500 ug/ml BSA, 20 U/ml SUPERase-In, 4 C; UNK is unkempt and MSI1 is Musashi-1; names of the RNAs are library labels; protein concentration not given here; high values mean tight binding).

| Binder | binding signal |
| --- | --- |
| B1 | 1.19 enrichment R |
| B2 | 1.24 enrichment R |
| B3 | 0.357 enrichment R |
| B4 | 1.07 enrichment R |
| B5 | 1.04 enrichment R |
| B6 | 1.04 enrichment R |
| B7 | 0.685 enrichment R |
| B8 | 0.63 enrichment R |
| B9 | 1.63 enrichment R |
| B10 | 0.422 enrichment R |
| B11 | 1.61 enrichment R |
| B12 | 1.14 enrichment R |
| B13 | 0.912 enrichment R |
| B14 | 1.22 enrichment R |
| B15 | 1.23 enrichment R |
| B16 | 0.916 enrichment R |
| B17 | 1.59 enrichment R |
| B18 | 1.05 enrichment R |
| B19 | 0.992 enrichment R |
| B20 | 0.564 enrichment R |
| B21 | 0.73 enrichment R |
| B22 | 0.798 enrichment R |
